In PubChem BioAssay AID504333 (National Center for Advancing Translational Sciences (NCATS), 2011):
Hit rate of the full screen: of about 360,000 compounds, about 16,000 (4.4%) were called active. The shares of active, inactive and inconclusive entries below differ from those in the screen. Calls follow the shape of the dose curve; as a rule, active = well fitted inhibition curve with a large enough effect; inconclusive = small, poorly fitted or top-dose-only effect; inactive = no such curve, though single readings can be large or run the other way. Where the call is inconclusive, the potency comes from a doubtful curve fit.

The molecules below were run against Bromodomain adjacent to zinc finger domain protein 2B (Homo sapiens) (UniProt Q9UIF8) (assay: qHTS Assay for Inhibitors of BAZ2B). Settings: AlphaScreen BAZ2B-H3K14Ac peptide displacement; series mostly up to 114 µM.
Summary of the method: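 AlphaScreen displacement of biotin-H3(5-23)K14Ac peptide (50 nM final) from BAZ2B (50 nM final) in PBS pH 7.4, 0.01% Tween-20; complex preformed 30 min RT, then compounds (top 110 uM) 30 min RT, beads 20 min dark.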
Also: nearly all actives have a fitted effect of over 60% in size.
Potency is read from the fitted curve at half-maximal effect; tags tell the direction and shape of the fitted curve.

Chain of UniProt Q9UIF8 (Q9UIF8 whole entry, looked up, the tested form may be a part): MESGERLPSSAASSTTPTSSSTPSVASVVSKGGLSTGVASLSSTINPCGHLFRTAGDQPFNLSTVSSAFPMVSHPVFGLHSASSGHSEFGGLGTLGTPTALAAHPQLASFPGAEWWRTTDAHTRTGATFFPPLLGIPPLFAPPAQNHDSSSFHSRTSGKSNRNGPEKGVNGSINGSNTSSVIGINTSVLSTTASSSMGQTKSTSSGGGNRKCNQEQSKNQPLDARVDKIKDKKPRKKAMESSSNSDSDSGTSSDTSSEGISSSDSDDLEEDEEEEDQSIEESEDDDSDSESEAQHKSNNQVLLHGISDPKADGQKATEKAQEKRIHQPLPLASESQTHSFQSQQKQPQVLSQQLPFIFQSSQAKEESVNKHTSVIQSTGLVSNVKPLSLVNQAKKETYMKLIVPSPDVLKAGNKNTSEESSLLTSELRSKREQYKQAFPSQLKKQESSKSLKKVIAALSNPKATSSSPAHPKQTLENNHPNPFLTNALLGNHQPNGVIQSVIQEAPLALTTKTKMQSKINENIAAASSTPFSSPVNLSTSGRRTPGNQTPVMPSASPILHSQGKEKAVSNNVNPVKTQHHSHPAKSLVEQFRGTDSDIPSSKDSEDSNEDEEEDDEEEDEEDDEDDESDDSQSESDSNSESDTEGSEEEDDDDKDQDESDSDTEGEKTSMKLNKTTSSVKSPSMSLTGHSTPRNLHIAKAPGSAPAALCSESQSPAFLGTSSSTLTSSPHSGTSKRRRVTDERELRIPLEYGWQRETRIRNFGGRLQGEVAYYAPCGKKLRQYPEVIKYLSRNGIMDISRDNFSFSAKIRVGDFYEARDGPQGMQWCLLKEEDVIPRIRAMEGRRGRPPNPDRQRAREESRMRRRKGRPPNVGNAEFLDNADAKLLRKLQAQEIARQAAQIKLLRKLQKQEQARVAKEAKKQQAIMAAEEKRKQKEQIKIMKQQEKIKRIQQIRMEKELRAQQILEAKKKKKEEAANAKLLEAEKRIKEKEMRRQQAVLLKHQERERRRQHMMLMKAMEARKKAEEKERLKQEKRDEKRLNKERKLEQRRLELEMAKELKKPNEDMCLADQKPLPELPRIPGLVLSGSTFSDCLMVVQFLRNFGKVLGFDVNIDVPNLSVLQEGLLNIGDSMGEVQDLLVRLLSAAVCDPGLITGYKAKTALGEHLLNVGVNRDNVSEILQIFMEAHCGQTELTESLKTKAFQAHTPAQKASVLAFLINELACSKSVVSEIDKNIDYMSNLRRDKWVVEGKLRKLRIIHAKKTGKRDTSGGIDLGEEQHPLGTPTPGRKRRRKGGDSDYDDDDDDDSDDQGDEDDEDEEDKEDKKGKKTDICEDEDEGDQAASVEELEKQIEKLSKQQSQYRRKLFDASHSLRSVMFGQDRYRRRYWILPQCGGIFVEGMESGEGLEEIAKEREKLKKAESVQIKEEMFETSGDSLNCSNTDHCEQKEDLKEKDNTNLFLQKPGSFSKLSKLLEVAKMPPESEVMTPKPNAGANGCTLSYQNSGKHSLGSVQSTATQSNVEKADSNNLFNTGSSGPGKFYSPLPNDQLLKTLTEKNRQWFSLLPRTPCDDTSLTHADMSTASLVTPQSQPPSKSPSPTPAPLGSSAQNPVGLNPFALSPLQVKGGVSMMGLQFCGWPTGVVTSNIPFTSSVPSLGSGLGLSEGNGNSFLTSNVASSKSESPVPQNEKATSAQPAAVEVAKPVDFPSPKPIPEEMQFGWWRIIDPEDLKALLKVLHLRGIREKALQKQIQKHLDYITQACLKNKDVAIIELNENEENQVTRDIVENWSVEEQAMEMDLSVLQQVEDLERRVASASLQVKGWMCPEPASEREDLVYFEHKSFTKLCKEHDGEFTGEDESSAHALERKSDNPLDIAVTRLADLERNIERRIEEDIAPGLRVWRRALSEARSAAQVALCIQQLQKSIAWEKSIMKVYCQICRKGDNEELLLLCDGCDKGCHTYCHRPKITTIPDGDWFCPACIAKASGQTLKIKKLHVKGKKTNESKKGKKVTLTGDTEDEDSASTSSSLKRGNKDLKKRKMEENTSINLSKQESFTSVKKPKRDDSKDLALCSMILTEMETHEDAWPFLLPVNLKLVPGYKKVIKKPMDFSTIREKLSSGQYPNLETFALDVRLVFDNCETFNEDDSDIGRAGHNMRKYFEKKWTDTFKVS

| SMILES | Potency |
| --- | --- |
| O=C(CNCC1CCCCC1)Nc1ccccc1N1CCCCC1 | inconclusive: 28.2 µM [inhibitor, single point] |
| COc1ccc(C(=O)CSc2nnc(CNC(=O)c3ccco3)n2C)cc1 | inactive |
| CC1=C(C(=O)Nc2ccccc2)C(c2ccc[nH]2)n2ncnc2N1 (stereo not drawn) | active: 8.91 µM |
| COc1ccc(C(=O)/C=C/C(=O)N(Cc2ccccc2)C(C(=O)NC2CCCCC2)c2ccncc2)c(O)c1 (stereo not drawn) | inconclusive: 79.4 µM [inhibitor, single point] |
| CCOC(=O)c1ccc(NCc2ccc3c(c2)OCO3)cc1 | inactive |
| Cc1ccc(C2CC(C(F)(F)F)n3ncc(C(=O)NCc4ccco4)c3N2)cc1 (stereo not drawn) | inconclusive: 70.8 µM [inhibitor, single point] |
| O=C(O)c1ccc(-n2cccc2/C=C2/SC(=O)N(CC(=O)N3CCCC3)C2=O)cc1 | active: 8.91 µM |
| CCOC(=O)C(=CNc1ccc2c(c1)CCN2C(C)=O)C(=O)OCC | inactive |
| CN1C=CC=C/C1=C1\SC(=S)N(N)C1=O | inactive |
| S=C(Nc1cccnc1)N1CCN(c2ccccc2Cl)CC1 | inconclusive: 79.4 µM [inhibitor, single point] |
| Cn1c(=O)c([N+](=O)[O-])c(NCCCn2ccnc2)c2ccccc21 | inactive |
| CC(=O)c1ccc(NC(=O)CCc2nnc3ccc(N4CCC5(CC4)OCCO5)nn23)cc1 | inconclusive: 79.4 µM [inhibitor, single point] |
| CN(C)c1ccc(CN(C(=O)c2ccccc2Br)C2CCS(=O)(=O)C2)cc1 (stereo not drawn) | inconclusive: 39.8 µM [inhibitor, partial curve] |
| C=CCOc1ccc(/C=N/NC(=O)C(=O)N2CCCCCC2)cc1OC | inactive |
| COc1cc(C=Nc2ccccc2C(=O)Nc2ccccc2)cc(OC)c1OC | inactive |
| COc1ccc(S(=O)(=O)N(C)C)cc1NCC(=O)Nc1ccc(Br)c(C)c1 | inconclusive: 70.8 µM [inhibitor, single point] |
| CCOc1ccc(S(=O)(=O)N2CN3CCN(C3)C2)cc1 | inconclusive: 89.1 µM [inhibitor, single point] |
| O=C(Cn1ncn2c(cc3ccccc32)c1=O)NCc1ccco1 | active: 50.1 µM |
| O=C(c1ccc2c(c1)N(Cc1ccc(Cl)cc1)C(=O)c1ccccc1S2=O)N1CCC(Cc2ccccc2)CC1 (stereo not drawn) | inconclusive: 22.4 µM [inhibitor, full curve] |
| CN(Cc1ccon1)Cc1cn[nH]c1-c1ccc(-c2ccccc2)cc1 | inconclusive: 50.1 µM [inhibitor, partial curve] |
| C[N+]1(C)CCC(=C2c3ccccc3CC(=O)c3sccc32)CC1 | active: 7.08 µM |
| CC(C)CNC(=O)c1cc(S(=O)(=O)N2CCOCC2)ccc1N1CCCC1 | inactive |
| C=CCNc1oc(-c2ccc(OCC)cc2)nc1C#N | inactive |
| CSc1nc(=S)c2[nH]c(=S)[nH]c2[nH]1 | active: 79.4 µM |

| SMILES | Potency |
| --- | --- |
| COc1ccc(C2=CC3=C(Br)C(=O)C(C)(OC(=O)c4ccc(Cl)nc4)C(=O)C3=CO2)cc1 (stereo not drawn) | active: 56.2 µM |
| O=[N+]([O-])c1cc(S(=O)(=O)c2ccc(N3CCCCC3)c([N+](=O)[O-])c2)ccc1N1CCCCC1 | inconclusive: 3.98 µM [inhibitor, full curve] |
| Cc1n[nH]c(C)c1N=Nc1ccc(Br)cc1 | inconclusive: 25.1 µM [inhibitor, partial curve] |
| O=C(NN1C(=O)/C(=C/c2ccc(O)c(O)c2)SC1=S)c1ccccc1 | active: 5.62 µM |
| CC(=O)c1cccc(NS(=O)(=O)c2ccc(-c3cnc(C4CC4)o3)cc2)c1 | inconclusive: 79.4 µM [inhibitor, single point] |
| Cc1ccc(S(=O)(=O)/N=C2/NC(=O)/C(=C/c3ccccc3)S2)cc1 | inconclusive: 89.1 µM [inhibitor, single point] |
| COC(=O)c1c(-c2ccc(Cl)cc2)noc1N1CCN(c2ccc(F)cc2)CC1 | inconclusive: 89.1 µM [inhibitor, single point] |
| COCCNC(=O)Nc1ccc2c(c1)N(C)C(=O)CS2 | inconclusive: 89.1 µM [inhibitor, single point] |
| COc1ccccc1CNCc1ccc(OC)c(OC)c1OC | active: 79.4 µM |
| COc1ccc(CNc2ncnc3c2[nH]c2cc(OC)c(OC)cc23)cc1 | inconclusive: 39.8 µM [inhibitor, partial curve] |
| N#Cc1c(-c2ccco2)cc(-c2ccccc2)[nH]c1=O | active: 70.8 µM |
| FC(F)(F)c1cnc2c(c1)[nH]c(=S)n2-c1ccc(Cl)cc1 | inactive |
| Cc1cccnc1NC(=S)NC(=O)/C=C/c1ccccc1 | active: 79.4 µM |
| C/C(=N/NC(=O)c1ccncc1)c1cc2ccc(O)cc2oc1=O | active: 79.4 µM |
| Cc1ccc(CCNC(=O)CCS(=O)(=O)c2cc3c(cc2Cl)NC(=O)CO3)cc1 | inactive |
| C/C(=N\Nc1nc2ccccc2s1)c1cccs1 | inconclusive: 44.7 µM [inhibitor, partial curve] |
| CCOC(=O)N1CCN(c2cc(=O)n(-c3ccc(Br)cc3)c(=O)[nH]2)CC1 | inactive |
| C=CCn1c(SC(C)C(=O)c2c(N)n(C)c(=O)n(C)c2=O)nnc1-c1ccoc1C (stereo not drawn) | inactive |
| CCOc1ccccc1NC(=O)C1=C(C)Nc2ncnn2C1c1cccs1 (stereo not drawn) | inactive |
| CCOC(=O)N1CCC(N(CCOC)C(=S)Nc2cccc(SC)c2)CC1 | inconclusive: 79.4 µM [inhibitor, partial curve] |
| Cc1ccn2c(NC3CCCC3)c(-c3cccs3)nc2c1 | inconclusive: 79.4 µM [inhibitor, partial curve] |
| COc1cc(/C=C2/C(=N)N3N=C(CC(=O)N4CCOCC4)SC3=NC2=O)ccc1OC(C)c1ccccc1 (stereo not drawn) | inactive |
| COc1ccc(C(C[N+](=O)[O-])c2c(C)cc3ccccn23)cc1 (stereo not drawn) | inconclusive: 39.8 µM [inhibitor, partial curve] |
| COC(=O)C1=C(C)N(Cc2ccccc2)C(=NCc2cc(OC)c(OC)c(OC)c2)N[C@H]1CCc1ccccc1 | inconclusive: 63.1 µM [inhibitor, partial curve, poor fit] |
